Results published in PubChem BioAssay AID1347073 (National Center for Advancing Translational Sciences (NCATS), 2019).
The campaign covered roughly 45,000 compounds. About 200 (0.44%) were called active. Roughly 7% stayed inconclusive and do not appear here. The call rests on the fitted dose curve; in most records, active means well fitted activation curve with a large enough effect; inconclusive means small, poorly fitted or top-dose-only effect; inactive means no such curve, though single readings can be large or run the other way. The list shows a part of the results.
Potency means the concentration at half of the fitted maximal effect.

Assay: qHTS of TDP-43 Inhibitors: NCGC Sytravon Library Screen; further: nearly all actives have a fitted effect of over 55% in size; on growth rescue (activation): 0% is about no effect
Conditions: yeast TDP-43 toxicity rescue, BacTiter-Glo growth, 24 h; series mostly up to 46.1 µM; growth rescue (activation): at the top concentration
Outline: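 TDP-43-expressing yeast, pregrown in raffinose, seeded at OD600 0.02 in galactose medium with compound for 24 hr at 30 deg C. Growth read by BacTiter-Glo luminescence, so rescue of toxicity appears as activation.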
With `CCOC(=O)c1c(C)c(C(=O)Nc2ccc(F)cc2)c(C)n1C` the “growth rescue (activation)” value was inactive: 22.5%.
In the case of `COC(=O)CSc1nc2ccc(NC(=O)c3ccccc3C(=O)N3CCOCC3)cc2s1`, the “growth rescue (activation)” value is reported as inactive: -7.21%.
With `Cc1ccc(S(=O)(=O)N2CCCCC2)cc1NC(=O)C1CC1` the “growth rescue (activation)” value was inactive: 0.424%.
For `COc1ccc(CNCCC(c2ccc(C)cc2)c2ccco2)cc1` (stereo not drawn), the “growth rescue (activation)” value was inactive: 4.74%.
With `O=C(Nc1noc2ccccc12)c1cccc(Cl)c1Cl` the “growth rescue (activation)” value was inactive: 7.76%.
In the case of `CCOC(=O)c1cc(NC(=O)CNCC(c2ccccc2)N(C)C)cc(C(=O)OCC)c1` (stereo not drawn), the “growth rescue (activation)” value is reported as inactive: -4.64%.
In the case of `Cc1cccc(OCC(=O)Nc2ccc(S(=O)(=O)Nc3onc(C)c3C)cc2)c1C`, the “growth rescue (activation)” value is reported as inactive: -10.2%.
In the case of `Cc1cccn2c(=O)c3cc(C(=O)N4CC(C)CC(C)C4)sc3nc12` (stereo not drawn), the “growth rescue (activation)” value is reported as inactive: 19.6%.
In the case of `O=C(CSc1nnc(-c2cccs2)n1CC1CCCO1)c1cc2ccccc2o1` (stereo not drawn), the “growth rescue (activation)” value is reported as inactive: 17.2%.
For `CC1(C(=O)NS(=O)(=O)c2ccc(F)cc2F)CCN1C(=O)CC(c1ccccc1)c1ccccc1` (stereo not drawn), the “growth rescue (activation)” value was inactive: 14.6%.
With `CC(C)(C)NC(=O)c1oc2ccccc2c1COc1ccccc1` the “growth rescue (activation)” value was inactive: 17.7%.
For `COc1ccccc1NC(=O)Nc1nc(C(N)C2CCCCC2)cs1` (stereo not drawn), the “growth rescue (activation)” value was inactive: 6.95%.
In the case of `CCOC(=O)c1cc(-c2ccc(N3CCOCC3)cc2)nn1-c1ccccc1`, the “growth rescue (activation)” value is reported as inactive: -10.7%.
With `Cc1ccc(OCC(=O)N(C)CC(=O)Nc2ccc(F)cc2)c([N+](=O)[O-])n1` the “growth rescue (activation)” value was inactive: -0.218%.
For `Cc1cc(C)n2nc(SC(C)C(=O)N(C)C3CCCCC3)nc2n1` (stereo not drawn), the “growth rescue (activation)” value was inactive: 9.66%.
With `O=S(=O)(NCc1ccco1)c1ccc2ccccc2c1` the Potency was active: 11.2 µM.
In the case of `CN(C)c1ccc(CC(=O)N2CCCCC2c2cc(C(=O)Nc3cccc4c3CCCC4)no2)cc1` (stereo not drawn), the “growth rescue (activation)” value is reported as inactive: 2.11%.
With `Cc1cc(C)nc(NN=C2CCCC2)n1` the “growth rescue (activation)” value was inactive: 22.2%.
For `Cc1ccc(COC(=O)c2ccc3ccccc3n2)cc1`, the “growth rescue (activation)” value was inactive: -7.68%.
For `Cc1ccc(C(=O)Nc2cccc([N+](=O)[O-])c2)cc1S(=O)(=O)Nc1ccc(NC(=O)c2ccccc2)cc1`, the “growth rescue (activation)” value was inactive: 13.2%.
For `Cc1ccc(NC(=S)NC2CCCCC2)cc1S(=O)(=O)N(C)C`, the “growth rescue (activation)” value was inactive: 8.18%.
With `Cn1c(N)c(C(=O)c2ccc(Cl)cc2)c(=O)n(C)c1=O` the “growth rescue (activation)” value was inactive: -12.1%.
For `CCc1nc(Nc2ccc(OC)cc2OC)c2oc3ccccc3c2n1`, the “growth rescue (activation)” value was inactive: -5.33%.
For `CCC1=NN2C(=N)/C(=C\c3ccc(OCCOc4ccc(NC(C)=O)cc4)cc3)C(=O)N=C2S1`, the “growth rescue (activation)” value was inactive: 9.51%.
For `COc1ccc(F)c(CN2CCC(CO)(Cc3cccc(C(F)(F)F)c3)CC2)c1`, the “growth rescue (activation)” value was inactive: -3.65%.
For `Cc1cc(C)n(S(=O)(=O)c2ccc3oc(=O)ccc3c2)n1`, the “growth rescue (activation)” value was inactive: 2.86%.
In the case of `CC(=O)c1ccc(NC(=O)C2(S(=O)(=O)c3ccccc3)CC2)cc1`, the “growth rescue (activation)” value is reported as inactive: 12.5%.
In the case of `CCC(C(=O)Nc1c[nH]c(=O)[nH]c1=O)c1ccccc1` (stereo not drawn), the “growth rescue (activation)” value is reported as inactive: 10.5%.
For `COc1ccc(C(=O)NNC(=O)CSc2nnc(C)n2CC2CCCO2)cc1` (stereo not drawn), the “growth rescue (activation)” value was inactive: 10.9%.
For `Cc1ccc(NC(=O)[C@@H]2O[C@H](CO)[C@@H](O)[C@H]2O)cc1C(F)(F)F`, the “growth rescue (activation)” value was inactive: 8.79%.
For `Nc1nonc1-n1nnc(C(=O)N/N=C/c2cc(Br)ccc2O)c1CNc1ccccc1`, the “growth rescue (activation)” value was inactive: 5.58%.
With `O=C1CN(S(=O)(=O)c2cccc(Br)c2)CCN1` the “growth rescue (activation)” value was inactive: -1.66%.
For `CC1CCCC(NC(=O)COC(=O)COc2cccc(F)c2)C1C` (stereo not drawn), the “growth rescue (activation)” value was inactive: -1.64%.
In the case of `O=C(Nc1ccccc1C(=O)O)c1cc(S(=O)(=O)Nc2ccccc2)ccc1Cl`, the “growth rescue (activation)” value is reported as inactive: -7.96%.
In the case of `COCCN(C(=O)CSc1ccc2c(c1)OCCO2)c1c(N)n(CC(C)C)c(=O)[nH]c1=O`, the “growth rescue (activation)” value is reported as inactive: 11.6%.
For `O=C(COC(=O)c1cc(-c2cccc(Br)c2)nc2ccccc12)NCC1CCCO1` (stereo not drawn), the “growth rescue (activation)” value was inactive: -13%.
For `CSc1ccccc1NC(=O)Nc1ccccc1Cl`, the “growth rescue (activation)” value was inactive: 1.52%.
In the case of `Cc1ccccc1Oc1nc2ccccn2c(=O)c1/C=C(\C#N)C(=O)Nc1c(C)n(C)n(-c2ccccc2)c1=O`, the “growth rescue (activation)” value is reported as inactive: 0.646%.
For `NS(=O)(=O)c1cccc(NC(=O)c2cccc(S(=O)(=O)N3CCCCCC3)c2)c1`, the “growth rescue (activation)” value was inactive: 28.6%.
In the case of `COc1ccc(C(CNc2ncnc3sccc23)N(C)C)cc1OC` (stereo not drawn), the “growth rescue (activation)” value is reported as inactive: 17.5%.
With `C=CCn1c(=O)[nH]c2cc(C(=O)N3CC=C(c4ccccc4)CC3)ccc2c1=O` the “growth rescue (activation)” value was inactive: -3.18%.
With `CCn1c(=O)c(=O)[nH]c2cc(C(=O)NCC3CCCCC3)ccc21` the “growth rescue (activation)” value was inactive: 11.3%.
In the case of `CC(C)CN(C(=O)c1ccc(F)cc1F)c1c(N)n(CC(C)C)c(=O)[nH]c1=O`, the “growth rescue (activation)” value is reported as inactive: -1.9%.
In the case of `Cc1ccc(CN2C3CCCC2CC(NC(=O)c2ccc(C)cc2)C3)cc1` (stereo not drawn), the “growth rescue (activation)” value is reported as inactive: 7.33%.
With `CC(C)CNC(=O)COC(=O)/C=C/c1ccco1` the “growth rescue (activation)” value was inactive: 9.37%.
In the case of `Cc1cc(C(=O)O)cc(S(=O)(=O)Nc2c(C)nn(C)c2C)c1C`, the “growth rescue (activation)” value is reported as inactive: 16.1%.
For `CCOC(=O)/C(=C/C=C1\Sc2ccccc2N1CC)C(C)=O`, the “growth rescue (activation)” value was inactive: 28.9%.
In the case of `CCN(C(=O)CSc1nc(-c2ccccc2)c(-c2ccccc2)[nH]1)C1CCS(=O)(=O)C1` (stereo not drawn), the “growth rescue (activation)” value is reported as inactive: 3.34%.
With `O=C(CCS(=O)(=O)c1ccc(Br)cc1)Nc1ccc(Cl)cc1F` the “growth rescue (activation)” value was inactive: 18.1%.
With `Cc1cc(C)c2oc(C(=O)N(Cc3ccccc3)c3ccccn3)cc(=O)c2c1` the “growth rescue (activation)” value was inactive: 6.64%.
With `OC[C@@H]1CN(Cc2ccncc2)C[C@H](n2cnc3c(N4CCN(c5ccccc5)CC4)ncnc32)O1` the “growth rescue (activation)” value was inactive: -4%.
For `Cc1cc(O)cc(O)c1-c1onc(C(F)(F)F)c1-c1cscn1`, the “growth rescue (activation)” value was inactive: 7.79%.
For `OC(c1cccnc1)c1nc(-c2cccc(F)c2)cs1` (stereo not drawn), the “growth rescue (activation)” value was inactive: 13.4%.
